Molecular target: the molecule itself

B1: T6BP (construct not stated; self-association, data not shown) (natural protein)
chain: not shown
  stoichiometry N: 2

From PMC2621013 (Journal of cell science, 2007)
